Data from the supplement of paper PMC12217912.
The list shows a part of the results. Sequences were assembled here from the parent chain. Inactive controls read about 0.05.

B1: TEV protease; numbered along this chain (parent)
chain: MGESLFKGPRDYNPISSSICHLTNESDGHTTSLYGIGFGPFIITNKHLFRRNNGTLVVQSLHGVFKVKDTTTLQQHLVDGRDMIIIRMPKDFPPFPQKLKFREPQREERICLVTTNFQTKSMSSMVSDTSCTFPSGDGIFWKHWIQTKDGQCGSPLVSTRDGFIVGIHSASNFTNTNNYFTSVPKNFMELLTNQEAQQWVSGWRLNADSVLWGGHKVFMVKPEEPFQPVKEATQL

Variants of: B1
Assay: raw area under fraction-flipped curve 0-4 h after induction (AUC4h, not background-subtracted), DNA-recorder readout of cleavage of the substrate (dimensionless); higher = more cleavage of the substrate by the protease variant
Details: temperature: 34 °C; time window: 0-4 h after rhamnose induction
Experimental: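 In vivo DNA recorder in E. coli TOP10(DE3) ΔrhaA at 34 °C. Each TEVp single-site mutant (parent TEVp 0) is paired with a single-site variant of the 7-mer TEVs (canonical ENLYFQ|S). The substrate sits between flexible linkers in a Bxb1-sfGFP-TEVs-SsrA fusion, so cleavage stabilises Bxb1 and speeds flipping of a recombination array, read by NGS. The value is the raw area under the fraction-flipped curve over 0-4 h after rhamnose induction (AUC4h), with ≥20 reads per time point. It is not background-subtracted; inactive controls average about 0.047.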
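Also: Bxb1 expression induced with 0.2% (w/v) L-rhamnose at OD600 near 0.5, cultures sampled hourly, flipped fraction per protease–substrate barcode pair counted by paired-end Illumina sequencing.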

| Variant | area with substrate ENLAFQS | area with substrate ENLCFQS | area with substrate ENLDFQS | area with substrate ENLEFQS | area with substrate ENLFFQS | area with substrate ENLGFQS | area with substrate ENLHFQS | area with substrate ENLIFQS | area with substrate ENLKFQS | area with substrate ENLLFQS | area with substrate ENLMFQS | area with substrate ENLNFQS | area with substrate ENLPFQS | area with substrate ENLQFQS | area with substrate ENLRFQS | area with substrate ENLSFQS | area with substrate ENLVFQS | area with substrate ENLWFQS | area with substrate ENLTFQS |
| --- | --- | --- | --- | --- | --- | --- | --- | --- | --- | --- | --- | --- | --- | --- | --- | --- | --- | --- | --- |
| P14W | 0.0678 | 0.0791 | 0.0605 | 0.0739 | 0.0787 | 0.0739 | 0.0645 | 0.0557 | 0.0681 | 0.0806 | 0.0629 | 0.0728 | 0.0574 | 0.0648 | 0.078 | 0.0651 | 0.0837 | 0.0734 | – |
| I15C | 0.0659 | 0.0277 | 0.0541 | 0.0662 | 0.0626 | 0.0552 | 0.0682 | 0.0629 | 0.068 | 0.061 | – | 0.0698 | 0.0589 | 0.0635 | 0.0631 | 0.0618 | – | 0.0633 | – |
| I15S | 0.0596 | 0.0677 | 0.0645 | 0.0432 | 0.0866 | 0.0609 | 0.0562 | 0.0701 | 0.0626 | 0.0509 | 0.0743 | 0.0398 | 0.0645 | 0.0648 | 0.0644 | 0.0531 | 0.0689 | – | 0.0584 |
| S17D | 0.0673 | – | 0.0639 | 0.0348 | 0.088 | 0.0477 | 0.0718 | 0.0835 | 0.085 | 0.078 | 0.0537 | 0.0646 | 0.0666 | 0.0654 | 0.0875 | 0.0679 | 0.081 | 0.0609 | – |
| S17F | 0.0887 | 0.0723 | 0.0609 | – | 0.0798 | – | 0.0569 | 0.0864 | 0.0825 | 0.063 | 0.0719 | 0.0522 | 0.0548 | – | 0.0588 | 0.0597 | 0.0702 | 0.0591 | – |
| S17Q | 0.0644 | 0.0675 | 0.0742 | 0.0575 | 0.0829 | 0.053 | 0.073 | 0.0897 | 0.0879 | 0.0687 | – | 0.0741 | 0.0469 | 0.064 | – | 0.069 | 0.0879 | 0.0644 | – |
| S18R | 0.0401 | 0.0758 | 0.0593 | – | 0.0598 | – | 0.09 | – | 0.0907 | 0.0691 | 0.0594 | 0.0469 | 0.06 | – | 0.0575 | 0.0556 | 0.085 | 0.0826 | – |
| I19H | 0.0556 | – | 0.0544 | 0.0604 | 0.062 | 0.074 | 0.0536 | 0.0679 | 0.0592 | – | 0.0556 | 0.0627 | 0.0604 | 0.0441 | 0.0603 | 0.0613 | 0.0754 | 0.058 | 0.0761 |
| C20F | 0.0319 | 0.0568 | 0.0625 | 0.0529 | 0.0648 | – | 0.0562 | 0.0562 | 0.058 | 0.0444 | – | 0.0521 | 0.0562 | 0.0535 | – | 0.0482 | – | – | – |
| C20M | 0.0575 | 0.064 | 0.0601 | 0.0536 | 0.0878 | – | 0.0729 | – | 0.0733 | – | 0.0656 | 0.0654 | 0.0569 | – | – | 0.0771 | – | 0.055 | – |
| H21D | 0.0555 | – | 0.0704 | 0.051 | 0.061 | 0.0347 | 0.0569 | – | 0.0603 | 0.0565 | 0.0631 | 0.0424 | 0.0508 | 0.0509 | 0.0738 | 0.0603 | – | 0.0526 | – |
| H21G | 0.0635 | 0.0699 | 0.0518 | 0.0541 | 0.0801 | 0.065 | 0.0629 | 0.0865 | 0.0647 | 0.075 | 0.0631 | 0.0579 | 0.0612 | 0.0793 | 0.0547 | 0.0607 | 0.0754 | 0.068 | 0.0477 |
| H21N | 0.0609 | 0.0508 | 0.0609 | 0.0686 | 0.0812 | 0.0928 | 0.0587 | 0.0674 | 0.0713 | 0.0649 | 0.0627 | 0.0686 | 0.0417 | – | 0.0609 | 0.056 | – | 0.0664 | – |
| H21W | 0.0518 | – | 0.0411 | 0.0421 | 0.0756 | 0.067 | 0.0663 | 0.0835 | 0.0788 | 0.0353 | 0.0726 | 0.0596 | 0.0747 | 0.102 | 0.0668 | 0.0513 | 0.0954 | 0.0726 | – |
| L22K | 0.0529 | – | 0.0508 | 0.0566 | 0.0437 | – | 0.0334 | 0.0504 | 0.0657 | 0.052 | 0.0515 | 0.0477 | – | 0.0509 | 0.0367 | 0.0467 | – | 0.0463 | – |
| L22V | 0.051 | 0.0713 | 0.0651 | 0.0646 | 0.0721 | 0.0637 | 0.0649 | – | 0.0741 | 0.0673 | 0.07 | 0.0411 | – | 0.0412 | 0.0718 | 0.0609 | 0.0682 | 0.0712 | 0.0627 |
| T23I | 0.052 | 0.0652 | 0.0673 | 0.057 | 0.0874 | 0.0666 | 0.0706 | 0.0467 | 0.0636 | 0.058 | – | 0.0552 | 0.0525 | 0.0819 | 0.0697 | – | – | 0.113 | – |
| T23R | 0.0713 | 0.0743 | 0.0629 | – | 0.0835 | – | 0.0647 | 0.106 | 0.0789 | 0.0644 | – | – | 0.0577 | – | 0.0544 | 0.0702 | – | 0.0659 | – |
| T23S | 0.0344 | 0.0633 | 0.0611 | 0.0773 | 0.0731 | – | 0.0734 | 0.0802 | 0.0716 | 0.0662 | 0.0747 | 0.0613 | 0.058 | 0.0631 | 0.072 | 0.0537 | 0.0959 | – | – |
| E25P | 0.0558 | 0.0625 | 0.0685 | 0.055 | 0.0599 | 0.0455 | 0.0571 | 0.0525 | 0.0607 | 0.0619 | – | 0.0666 | 0.0526 | 0.0627 | 0.059 | 0.0654 | – | 0.0646 | – |
| S26C | 0.0575 | 0.0575 | 0.0612 | 0.0738 | 0.0725 | 0.0455 | 0.075 | 0.0768 | 0.0736 | – | – | 0.0673 | 0.0769 | 0.064 | 0.0644 | 0.0619 | 0.0747 | 0.0641 | – |
| S26F | 0.0657 | 0.0631 | 0.0605 | 0.0667 | 0.0669 | – | 0.0676 | 0.0643 | 0.068 | 0.0559 | 0.0796 | 0.0569 | – | 0.0449 | 0.0634 | 0.0561 | – | 0.0556 | – |
